# Laboratory results published in the supplement of paper PMC8728848.
# This is one part of the list.
# B1: OGAA (protein)
# chain: MVQKESQATLEERESELSSNPAASAGASLEPPAAPAPGEDNPAGAGGAAVAGAAGGARRFLCGVVEGFYGRPWVMEQRKELFRRLQKWELNTYLYAPKDDYKHRMFWREMYSVEEAEQLMTLISAAREYEIEFIYAISPGLDITFSNPKEVSTLKRKLDQVSQFGCRSFALLFADIDHNMCAADKEVFSSFAHAQVSITNEIYQYLGEPETFLFCPTEYCGTFCYPNVSQSPYLRTVGEKLLPGIEVLWTGPKVVSKEIPVESIEEVSKIIKRAPVIWDNIHANDYDQKRLFLGPYKGRSTELIPRLKGVLTNPNCEFEANYVAIHTLATWYKSNMNGVRKDVVMTDSEDSTVSIQIKLENEGSDEDIETDVLYSPQMALKLALTEWLQEFGVPHQY
# How the values were obtained:
# Assay in all cases: glycan array binding signal (z-score within array); higher = stronger binding
# Settings in all cases: glycan notation: IUPAC condensed, linker removed
# [1] = target: Neu5Ac(a2-3)Gal(b1-3)GlcNAc6S
# How it was run: (§1)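 From the Consortium for Functional Glycomics database, 3228 arrays were curated, keeping only those whose protein sequence was available. Binding is given as a within-array Z-score averaged across arrays sharing a protein sequence and across linkers. Negative Z-scores can be read as non-binding.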
# [2] = target: Neu5Ac(a2-3)Gal(b1-3)[Fuc(a1-4)]GlcNAc
# How it was run: as §1
# [3] = target: Neu5Ac(a2-3)Gal(b1-3)[Fuc(a1-4)]GlcNAc(b1-3)Gal(b1-3)[Fuc(a1-4)]GlcNAc
# How it was run: as §1
# [4] = target: Neu5Ac(a2-3)Gal(b1-3)[Fuc(a1-4)]GlcNAc(b1-3)Gal(b1-4)[Fuc(a1-3)]GlcNAc
# How it was run: as §1
# [5] = target: Neu5Ac(a2-3)Gal(b1-3)[GlcNAc(b1-6)]GalNAc
# How it was run: as §1
# [6] = target: Neu5Ac(a2-3)Gal(b1-3)[Neu5Ac(a2-6)]GalNAc
# How it was run: as §1
# [7] = target: Neu5Ac(a2-3)Gal(b1-3)[Neu5Ac(a2-6)]GlcNAc(b1-3)[Fuc(a1-3)[Gal(b1-4)]GlcNAc(b1-6)]Gal(b1-4)Glc
# How it was run: as §1
# [8] = target: Neu5Ac(a2-3)Gal(b1-3)]Neu5Ac(a2-3)Gal(b1-4)]GlcNAc
# How it was run: as §1
# [9] = target: Neu5Ac(a2-3)Gal(b1-4)Glc
# How it was run: as §1
# [10] = target: Neu5Ac(a2-3)Gal(b1-4)GlcNAc
# How it was run: as §1
# [11] = target: Neu5Ac(a2-3)Gal(b1-4)GlcNAc(b1-2)Man
# How it was run: as §1
# [12] = target: Neu5Ac(a2-3)Gal(b1-4)GlcNAc(b1-2)Man(a1-3)[GlcNAc(b1-4)][Neu5Ac(a2-3)Gal(b1-4)GlcNAc(b1-2)Man(a1-6)]Man(b1-4)GlcNAc(b1-4)GlcNAc
# How it was run: as §1
# [13] = target: Neu5Ac(a2-3)Gal(b1-4)GlcNAc(b1-2)Man(a1-3)[Neu5Ac(a2-3)Gal(b1-4)GlcNAc(b1-2)Man(a1-6)]Man(b1-4)GlcNAc(b1-4)GlcNAc
# How it was run: as §1
# [14] = target: Neu5Ac(a2-3)Gal(b1-4)GlcNAc(b1-2)Man(a1-3)[Neu5Ac(a2-3)Gal(b1-4)GlcNAc(b1-2)Man(a1-6)]Man(b1-4)GlcNAc(b1-4)[Fuc(a1-6)]GlcNAc
# How it was run: as §1
# [15] = target: Neu5Ac(a2-3)Gal(b1-4)GlcNAc(b1-2)Man(a1-3)[Neu5Ac(a2-6)Gal(b1-4)GlcNAc(b1-2)Man(a1-6)]Man(b1-4)GlcNAc(b1-4)GlcNAc
# How it was run: as §1
# [16] = target: Neu5Ac(a2-3)Gal(b1-4)GlcNAc(b1-2)[Neu5Ac(a2-3)Gal(b1-4)GlcNAc(b1-4)]Man(a1-3)[GlcNAc(b1-4)][Neu5Ac(a2-3)Gal(b1-4)GlcNAc(b1-2)[Neu5Ac(a2-3)Gal(b1-4)GlcNAc(b1-6)]Man(a1-6)]Man(b1-4)GlcNAc(b1-4)GlcNAc
# How it was run: as §1
# [17] = target: Neu5Ac(a2-3)Gal(b1-4)GlcNAc(b1-2)[Neu5Ac(a2-3)Gal(b1-4)GlcNAc(b1-4)]Man(a1-3)[GlcNAc(b1-4)][Neu5Ac(a2-3)Gal(b1-4)GlcNAc(b1-4)Man(a1-6)]Man(b1-4)GlcNAc(b1-4)GlcNAc
# How it was run: as §1
# [18] = target: Neu5Ac(a2-3)Gal(b1-4)GlcNAc(b1-2)[Neu5Ac(a2-3)Gal(b1-4)GlcNAc(b1-6)]Man(a1-6)[Neu5Ac(a2-3)Gal(b1-4)GlcNAc(b1-2)Man(a1-3)][GlcNAc(b1-4)]Man(b1-4)GlcNAc(b1-4)GlcNAc
# How it was run: as §1
# [19] = target: Neu5Ac(a2-3)Gal(b1-4)GlcNAc(b1-3)Gal
# How it was run: as §1
# [20] = target: Neu5Ac(a2-3)Gal(b1-4)GlcNAc(b1-3)Gal(b1-3)GlcNAc
# How it was run: as §1
# [21] = target: Neu5Ac(a2-3)Gal(b1-4)GlcNAc(b1-3)Gal(b1-4)GlcNAc
# How it was run: as §1
# [22] = target: Neu5Ac(a2-3)Gal(b1-4)GlcNAc(b1-3)Gal(b1-4)GlcNAc(b1-2)Man(a1-3)[Neu5Ac(a2-3)Gal(b1-4)GlcNAc(b1-3)Gal(b1-4)GlcNAc(b1-2)Man(a1-6)]Man(b1-4)GlcNAc(b1-4)GlcNAc
# How it was run: as §1
# [23] = target: Neu5Ac(a2-3)Gal(b1-4)GlcNAc(b1-3)Gal(b1-4)GlcNAc(b1-3)Gal(b1-4)GlcNAc
# How it was run: as §1
# [24] = target: Neu5Ac(a2-3)Gal(b1-4)GlcNAc(b1-3)Gal(b1-4)GlcNAc(b1-3)Gal(b1-4)GlcNAc(b1-2)Man(a1-3)[Neu5Ac(a2-3)Gal(b1-4)GlcNAc(b1-3)Gal(b1-4)GlcNAc(b1-3)Gal(b1-4)GlcNAc(b1-2)Man(a1-6)]GalNAc
# How it was run: as §1
# [25] = target: Neu5Ac(a2-3)Gal(b1-4)GlcNAc(b1-3)Gal(b1-4)GlcNAc(b1-3)GalNAc
# How it was run: as §1
# [26] = target: Neu5Ac(a2-3)Gal(b1-4)GlcNAc(b1-3)Gal(b1-4)GlcNAc(b1-3)[Neu5Ac(a2-3)Gal(b1-4)GlcNAc(b1-3)Gal(b1-4)GlcNAc(b1-6)]GalNAc
# How it was run: as §1
# [27] = target: Neu5Ac(a2-3)Gal(b1-4)GlcNAc(b1-3)Gal(b1-4)GlcNAc(b1-6)[Gal(b1-3)]GalNAc
# How it was run: as §1
# [28] = target: Neu5Ac(a2-3)Gal(b1-4)GlcNAc(b1-3)Gal(b1-4)[Fuc(a1-3)]GlcNAc
# How it was run: as §1
# [29] = target: Neu5Ac(a2-3)Gal(b1-4)GlcNAc(b1-3)GalNAc
# How it was run: as §1
# [30] = target: Neu5Ac(a2-3)Gal(b1-4)GlcNAc(b1-3)[Neu5Ac(a2-3)Gal(b1-4)GlcNAc(b1-6)]GalNAc
# How it was run: as §1
binder,measurement,setting,value
B1,glycan array binding signal (z-score),[1],-0.085
same,glycan array binding signal (z-score),[2],-0.083
same,glycan array binding signal (z-score),[3],0.016
same,glycan array binding signal (z-score),[4],-0.081
same,glycan array binding signal (z-score),[5],-0.027
same,glycan array binding signal (z-score),[6],0.07
same,glycan array binding signal (z-score),[7],-0.063
same,glycan array binding signal (z-score),[8],-0.107
same,glycan array binding signal (z-score),[9],-0.075
same,glycan array binding signal (z-score),[10],-0.055
same,glycan array binding signal (z-score),[11],0.083
same,glycan array binding signal (z-score),[12],-0.029
same,glycan array binding signal (z-score),[13],-0.095
same,glycan array binding signal (z-score),[14],-0.064
same,glycan array binding signal (z-score),[15],-0.118
same,glycan array binding signal (z-score),[16],-0.098
same,glycan array binding signal (z-score),[17],-0.06
same,glycan array binding signal (z-score),[18],-0.063
same,glycan array binding signal (z-score),[19],-0.09
same,glycan array binding signal (z-score),[20],-0.104
same,glycan array binding signal (z-score),[21],-0.046
same,glycan array binding signal (z-score),[22],-0.1
same,glycan array binding signal (z-score),[23],-0.06
same,glycan array binding signal (z-score),[24],-0.088
same,glycan array binding signal (z-score),[25],-0.062
same,glycan array binding signal (z-score),[26],-0.106
same,glycan array binding signal (z-score),[27],-0.112
same,glycan array binding signal (z-score),[28],-0.073
same,glycan array binding signal (z-score),[29],-0.086
same,glycan array binding signal (z-score),[30],-0.114
